# Assay results from PubChem BioAssay AID588342 (National Center for Advancing Translational Sciences (NCATS), 2011).
# Where “and” joins values, the source holds several entries; their conditions need not be identical. Identical values can stand only once. About 25,000 (6.9%) of roughly 360,000 compounds were called active. Inconclusive means that the source gave no clear call. Such entries were picked first, then a sample of the others. Calls follow the shape of the dose curve; as a rule, active = well fitted inhibition curve with a large enough effect; inconclusive = small, poorly fitted or top-dose-only effect; inactive = flat fitted curve, though single readings scatter. Potencies of inconclusive entries are doubtful fits and often do not repeat.
# Biological target: Luciferin 4-monooxygenase (Photinus pyralis) (UniProt P08659)
# Chain of UniProt P08659 (P08659 whole entry, looked up): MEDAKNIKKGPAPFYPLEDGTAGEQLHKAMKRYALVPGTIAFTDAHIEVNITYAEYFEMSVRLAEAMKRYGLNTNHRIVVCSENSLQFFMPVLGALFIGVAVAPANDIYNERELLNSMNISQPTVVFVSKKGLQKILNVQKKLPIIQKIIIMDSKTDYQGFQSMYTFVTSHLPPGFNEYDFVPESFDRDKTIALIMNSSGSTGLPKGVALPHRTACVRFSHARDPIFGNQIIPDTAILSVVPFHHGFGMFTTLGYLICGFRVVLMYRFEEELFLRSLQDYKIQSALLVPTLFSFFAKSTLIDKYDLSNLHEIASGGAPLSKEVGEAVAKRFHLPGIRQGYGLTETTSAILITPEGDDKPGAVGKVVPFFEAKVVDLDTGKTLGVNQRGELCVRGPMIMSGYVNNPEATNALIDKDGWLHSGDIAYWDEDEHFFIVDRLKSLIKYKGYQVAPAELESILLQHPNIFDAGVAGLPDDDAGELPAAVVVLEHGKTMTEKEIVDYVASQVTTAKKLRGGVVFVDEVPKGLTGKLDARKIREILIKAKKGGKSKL
# Test: qHTS profiling assay for firefly luciferase inhibitor/activator using purifed enzyme and Km concentrations of substrates (counterscreen for miR-21 project); also: nearly all actives have a fitted effect of over 55% in size;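 as to activity change, negative = inhibition: plate controls were vehicle for no effect and reference inhibitor for full effect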
# Details: purified FLuc, luminescence inhibition; series mostly up to 57.5 µM; activity change, negative = inhibition: at the top concentration
# Outline: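 Biochemical qHTS of compounds, final roughly 60 µM downward over six points, against 10 nM purified firefly luciferase using Km concentrations of substrates (10 uM D-luciferin, 10 uM ATP) in Tris acetate pH 7.5 buffer; luminescence output.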
# Potency is read from the fitted curve at half-maximal effect; tags tell the direction and shape of the fitted curve.
Structure (SMILES),Potency,"activity change, negative = inhibition"
CCOc1ccc(-c2cnc3ccccc3n2)cc1,active: 0.169 µM,–
N/C(=N\OC(=O)COc1ccccc1)c1ccncc1,"inconclusive: 37.9 µM [inhibitor, single point]",–
COc1ccc(NCc2nc3ccccc3n2CCOc2ccccc2)cc1,active: 13.5 µM,–
COc1cc2nc(SCc3c(C)noc3C)n(CCC3=CCCCC3)c(=O)c2cc1OC,–,inactive: 5.39%
Oc1c(C(c2ccccc2F)N2CCCCC2)sc2nc(-c3ccco3)nn12 (stereo not given),"inconclusive: 26.9 µM [inhibitor, partial curve, poor fit]",–
C=C(C)CNc1cc(S(=O)(=O)N2CCOCC2)ccc1Oc1ccccc1,–,inactive: -9.91%
Nc1nnc(SCC(=O)Nc2ccc3nc(SCC(=O)Nc4ccccc4)sc3c2)s1,"inconclusive: 13.5 µM [inhibitor, partial curve, poor fit]",–
CCOc1ccc(-c2cc(-c3nc(-c4cc(OC)c(OC)c(OC)c4)no3)[nH]n2)cc1Cl,"inconclusive: 13.5 µM [inhibitor, partial curve]",–
Clc1ccc(CSc2nnc(-c3c[nH]c4ccccc34)o2)cc1,"inconclusive: 37.9 µM [inhibitor, partial curve, poor fit]",–
O=C(c1ccco1)N1CCN(C(=O)c2cc(-c3ccccc3)nc3ccccc23)CC1,active: 6.75 µM,–
Cc1ccccc1NC(=O)OCc1ccccc1,"inconclusive: 23.9 µM [inhibitor, partial curve]",–
O=C(CN1C(=O)c2ccccc2S1(=O)=O)NCCC1=CCCCC1,"inconclusive: 37.9 µM [inhibitor, single point]",–
CCN1CCN(CCCNC(=O)c2ccc3c(c2)NC(=O)/C(=C\c2cccc(C)c2)S3)CC1,"inconclusive: 37.9 µM [inhibitor, partial curve, poor fit]",–
O=C(OC1CCCCC1)c1ccc2c(c1)C1C=CCC1C(C(=O)O)N2 (stereo not given),"inconclusive: 15.1 µM [inhibitor, partial curve]",–
CCOC(=O)c1nc(Nc2cc(Cl)ccc2OC)c2ccccc2n1,–,inactive: -2.61%
COc1cc2c(cc1OC)C(COc1ccc(F)cc1)N(C(=O)c1ccc(S(=O)(=O)N3CCCC3)cc1)CC2 (stereo not given),–,inactive: 0.786%
O=[N+]([O-])c1cc2c(c(CSc3ncccn3)c1)OCOC2,"inconclusive: 37.9 µM [inhibitor, partial curve, poor fit]",–
COc1ccccc1NC(=O)COC(=O)C12CC3CC(CC(Cl)(C3)C1)C2,active: 15.1 µM,–
O=C(/C=C/c1ccccc1)NNC(=O)c1ccco1,"inconclusive: 37.9 µM [inhibitor, partial curve, poor fit]",–
COc1ccc(OC)c(/C=N\NC(=O)c2ccc(-c3ccccc3)cc2)c1,"inconclusive: 8.49 µM [inhibitor, partial curve, poor fit]",–
Cc1cc(N2CCCCC2C)nc(-c2ccccc2O)n1 (stereo not given),"inconclusive: 26.9 µM [inhibitor, single point]",–
Cc1[nH]n(-c2ccccc2)c(=O)c1N=Nc1nccs1,active: 19 µM,–
Cc1ccc(C)c(CN2C(=O)c3ccccc3S(=O)c3ccc(C(=O)N4CCN(c5ccccc5F)CC4)cc32)c1 (stereo not given),–,inactive: -1.99%
COc1ccc(-c2nc(-n3c(C)c(C(C)=O)c(C(C)=O)c3C)sc2C)cc1,–,inactive: 6.57%

Structure (SMILES),Potency,"activity change, negative = inhibition"
COc1ccc(Nc2nc3cc(Cl)c(Cl)cc3n3cnnc23)cc1Cl,–,inactive: -10.2%
CCCOc1ccc(C(=O)N2CC3(CC(c4cccc(NC(=O)[C@@H]5CCC(=O)N5)c4)=NO3)C[C@H]2C(=O)NC2(C(N)=O)CC2)cc1 (stereo not given in full),–,inactive: 4.73%
Cc1ccc2[nH]c3c(c2c1)CCNC3=O,"inconclusive: 23.9 µM [inhibitor, partial curve, poor fit]",–
CC(=O)C1=C(O)C(=O)N(CCCN2CCOCC2)C1c1ccccc1[N+](=O)[O-] (stereo not given),"inconclusive: 16.9 µM [inhibitor, partial curve, poor fit]",–
Cc1ccc(-c2nc3cc(NC(=O)C(C)C)ccc3o2)cc1,active: 1.07 µM,–
CC(C)(C)NC(=S)NNC(=O)c1cccc(Br)c1,"inconclusive: 37.9 µM [inhibitor, single point]",–
CC(C)(C)c1ccc(C(=O)NCC(=O)OCC(=O)N2CCCC2)cc1,active: 15.1 µM,–
O=C(/C=C/c1ccccc1Cl)NCc1cccs1,"inconclusive: 23.9 µM [inhibitor, partial curve]",–
CCn1ncc([N+](=O)[O-])c1C(=O)n1nc(C)cc1C,"inconclusive: 23.9 µM [inhibitor, partial curve, poor fit]",–
O=C(Nc1ccc(O)c2c(=O)cc(-c3ccccc3Cl)oc12)c1cccc(Cl)c1,"inconclusive: 21.3 µM [inhibitor, partial curve, poor fit]",–
CCOC(=O)c1ccc(NC(=O)CSc2nnc(CNC(=O)c3ccc(OC)cc3)n2CC)cc1,active: 15.1 µM,–
COC(=O)c1sccc1-c1ccc(C(N)=O)o1,–,inactive: -3.44%
Cc1ccc(C(=O)NNC(=S)NC(=O)c2ccco2)cc1,"inconclusive: 23.9 µM [inhibitor, partial curve, poor fit]",–
CCOc1ccc(N2C(=O)CC(N(CCc3ccc(OC)c(OC)c3)C(=S)Nc3ccccc3)C2=O)cc1 (stereo not given),–,inactive: 0.272%
Cc1cccc(OCCSc2nc3ccc(NC(=O)COc4ccccc4C)cc3s2)c1,–,inactive: -4.35%
CC(C)(C)c1ccc(OC(=O)c2cccnc2)cc1,active: 12 µM,–
O=C(Cc1cccs1)Nc1ccc(NC(=O)c2ccco2)cc1,"inconclusive: 26.9 µM [inhibitor, single point]",–
COc1ccc(/C=C/c2ccncc2)c2ccccc12,–,inactive: -5.75%
Cn1cc(C(=O)NC2CCCCC2)c(=O)c2cc(S(=O)(=O)N3CCCC3)ccc21,–,inactive: 0.0664%
CCOC(=O)c1c(NC(=O)CSc2cn(CCNC(=O)c3ccc(OC)c(OC)c3)c3ccccc23)sc2c1CCC2,–,inactive: -1.95%
Cc1cc(C)n2nc(-c3ccc(Cl)cc3)nc2n1,active: 15.1 µM,–
O=C(CSc1nc(Nc2ccccc2)nc(N2CCOCC2)n1)Nc1cc(Cl)ccc1O,"inconclusive: 30.1 µM [inhibitor, partial curve, poor fit]",–
COc1ccc(C(=O)C2CCCN(C(=O)c3ccccc3C(C)=O)C2)cc1F (stereo not given),"inconclusive: 37.9 µM [inhibitor, partial curve, poor fit]",–
CC(C)Oc1ccc(CNC(=O)c2ccc(CS(=O)Cc3ccccc3Cl)o2)cc1 (stereo not given),–,inactive: -18.2%

Structure (SMILES),Potency,"activity change, negative = inhibition"
C/C(=N/NC(=O)c1ccccn1)c1ccc(O)cc1,active: 23.9 µM,–
Cc1sc(NC(=O)c2ccccc2)c(C(=O)c2ccccc2)c1C,"inconclusive: 26.9 µM [inhibitor, partial curve, poor fit]",–
Cc1ccnc(NC(=O)c2ccc3c(c2)NC(=O)C(C)S3)c1 (stereo not given),active: 1.9 µM,–
O=C(Nc1ccc(NC(=O)C2CC2)nc1)c1ccccn1,active: 6.75 µM,–
Cc1ccc(-n2nc(C(=O)NCc3ccc(F)cc3Cl)c3c4ccccc4n(C)c3c2=O)cc1,–,inactive: -1.93%
C=CCn1c(=O)/c(=C2/Sc3cc(OC)ccc3N2C)s/c1=C1\C(=O)N(CC)C(=S)N1C,"inconclusive: 30.1 µM [inhibitor, partial curve, poor fit]",–
CC1CCc2c(sc(NC(=O)c3ccc(Cn4cc(Br)cn4)o3)c2C(N)=O)C1 (stereo not given),"inconclusive: 2.39 µM [inhibitor, full curve]",–
CCOc1ccc2[nH]c3c(NCC(C)C)ncnc3c2c1,"inconclusive: 26.9 µM [inhibitor, partial curve]",–
COc1ccccc1N1CCN(/N=C/C=C/c2ccccc2[N+](=O)[O-])CC1,"inconclusive: 23.9 µM [inhibitor, partial curve]",–
COc1ccc(CNc2nc3c(c(=O)n(Cc4ccc(F)cc4)c(=O)n3C)n2C)cc1,–,inactive: 10.3%
COC(=O)c1ccc(Nc2nc(-c3ccc(C)cc3)nc3ccccc23)cc1,"inconclusive: 37.9 µM [inhibitor, single point]",–
CN(C(=O)c1ccco1)c1nc(-c2ccc(F)cc2)cs1,active: 2.69 µM,–
CSc1ccccc1NC(=O)c1cc(-c2ccc3c(c2)OCO3)on1,"inconclusive: 7.57 µM [inhibitor, partial curve]",–
O=C(COc1ccc([N+](=O)[O-])cc1)NNC(=O)c1cccs1,"inconclusive: 23.9 µM [inhibitor, single point]",–
COc1cc(-c2noc(-c3ccc(N4CCCC4)c([N+](=O)[O-])c3)n2)cc(OC)c1OC,"inconclusive: 9.53 µM [inhibitor, partial curve, poor fit]",–
O=C(CN1C(=O)NC2(CCCC2)C1=O)NNC(=O)c1ccc(Br)cc1,–,inactive: -3.89%
COC(=O)/C=C1/S/C(=N/N=C/c2ccc(N(C)C)cc2)NC1=O,"inconclusive: 6.75 µM [inhibitor, partial curve]",–
CS(=O)(=O)Nc1ccc(C(=O)Nc2ccc3c(c2)OCCO3)cc1,active: 19 µM,–
COc1cccc(NC(=O)CN(C)C(=O)c2cc(-c3ccco3)nc3ccccc23)c1,"inconclusive: 37.9 µM [inhibitor, single point]",–
Cc1c(N/C=C/C(=O)c2cccs2)c(=O)n(-c2ccccc2)n1C,"inconclusive: 21.3 µM [inhibitor, single point]",–
O=C1SC(SCc2ccccc2)=N/C1=C\c1ccc(C(=O)O)cc1,active: 23.9 µM,–
CCOc1ccc(NC(=O)Nc2cccc(C)n2)cc1,"inconclusive: 1.9 µM [inhibitor, partial curve, poor fit] and inconclusive: 2.69 µM [inhibitor, full curve]",–
